Results as given in PubChem BioAssay AID624417 (National Center for Advancing Translational Sciences (NCATS), 2012).
In all, about 410,000 compounds went through this assay and about 6,400 (1.6%) were called active. Inconclusive means that the source gave no clear call. Such entries were picked first, then a sample of the others. Calls follow the shape of the dose curve; as a rule, active = well fitted inhibition curve with a large enough effect; inconclusive = small, poorly fitted or top-dose-only effect; inactive = no such curve, though single readings can be large or run the other way. No potency is given beside an inconclusive call; the fits are too rough.

target: Glucagon-like peptide 1 receptor (Homo sapiens) (UniProt P43220); assay: qHTS of GLP-1 Receptor Inverse Agonists (Inhibition Mode); conditions: HEK293 GLP-1R CRE-luciferase, luminescence, 24 h, GLP-1R form is constitutively active; activity change, negative = inhibition: at 38.3 µM (top of the series) unless noted; also: nearly all actives have a fitted effect of over 55% in size
Method in brief: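 Readout was luciferase luminescence, measured 12 min after detection reagent at room temperature. Beforehand, GLP-1R reporter HEK293 cells had sat 12 h, then received compounds for 24 hr at 37 deg C.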
% is scaled to controls: 0 for no effect and ±100 for the full control effect; potency is read from the fitted curve at half-maximal effect; tags tell the direction and shape of the fitted curve.

Sequence of UniProt P43220 (P43220 whole entry, looked up): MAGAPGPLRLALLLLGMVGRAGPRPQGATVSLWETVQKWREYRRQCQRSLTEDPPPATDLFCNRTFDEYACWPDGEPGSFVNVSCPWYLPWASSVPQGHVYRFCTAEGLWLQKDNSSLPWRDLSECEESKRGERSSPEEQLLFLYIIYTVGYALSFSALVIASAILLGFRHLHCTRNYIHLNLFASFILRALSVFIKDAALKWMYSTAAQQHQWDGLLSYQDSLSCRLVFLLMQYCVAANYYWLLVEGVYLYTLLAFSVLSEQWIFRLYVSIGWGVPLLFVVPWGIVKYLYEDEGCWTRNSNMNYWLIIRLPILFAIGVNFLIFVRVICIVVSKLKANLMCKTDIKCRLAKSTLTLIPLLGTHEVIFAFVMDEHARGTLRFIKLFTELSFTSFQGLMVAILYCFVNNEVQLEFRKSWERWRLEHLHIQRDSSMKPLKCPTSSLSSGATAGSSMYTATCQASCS

SMILES | Potency | activity change, negative = inhibition
COc1ccc(S(=O)(=O)N2Cc3ccccc3CC2C(=O)Nc2cc(Cl)ccc2Cl)cc1 (stereo not drawn) | inconclusive [inhibitor, single point] | –
COc1ccc(CC(=O)NC2CCSc3ccccc32)c(OC)c1 (stereo not drawn) | inconclusive [inhibitor, partial curve] | –
CNC(=S)N(Cc1ccc(OC)cc1)C1CC(=O)N(c2ccc(Cl)cc2)C1=O (stereo not drawn) | active: 11.2 µM | –
O=C(O)/C=C/c1ccc(S(=O)(=O)Nc2ccc3[nH]c(=O)[nH]c3c2)cc1 | – | inactive: 6.7%
Oc1ccc(-c2[nH]ncc2-c2nc3ccccc3s2)c(O)c1 | inconclusive [inhibitor, single point] | –
C/C(=N\Nc1ccc([N+](=O)[O-])cc1[N+](=O)[O-])C(C)C(C)C (stereo not drawn) | inconclusive [inhibitor, single point] | –
Fc1ccccc1CSCc1nc2ccccc2[nH]1 | – | inactive: -10.1%
CCc1cccc(NS(=O)(=O)c2ccc3c(c2)CC(C)N3C(=O)C2CC2)c1 (stereo not drawn) | inconclusive [inhibitor, partial curve, poor fit] | –
COc1ccnc(CSC(N)=Nc2ccc(F)cc2)c1 | inconclusive [inhibitor, single point] | –
O=C(N/N=C/c1cccc(O)c1)c1ccc(COc2ccccc2Br)cc1 | inconclusive [inhibitor, single point] | –
COC(=O)CCCn1c(C)cc(C(=O)CCl)c1C | – | inactive: 0.972% [at 0.307 µM]
COc1ccc(N2CCN(C(=O)C3CCCN(c4ncnc5c4nc4n5CCCCC4)C3)CC2)cc1 (stereo not drawn) | inconclusive [inhibitor, partial curve, poor fit] | –
CC(=O)c1cc(CC=C(C)C)c(O)c(CC=C(C)C)c1O | inconclusive [inhibitor, single point] | –
COc1cccc(CNC(C)(C)CO)c1OCc1ccc(Cl)cc1 | active: 11.2 µM | –
COc1ccccc1C(=O)NCc1nc2cccnc2n1Cc1ccc(F)cc1 | – | inactive: 1.36%
COc1ccc(C(=O)c2c(NC(C)=O)sc3c2CCN(C(=O)OC(C)(C)C)C3)cc1 | inconclusive [inhibitor, full curve] | –
CCc1c(C)c2ccc(O)c(CN3CCN(c4ccc(F)cc4)CC3)c2oc1=O | inconclusive [inhibitor, partial curve, poor fit] | –
O=c1[nH]c2ccc(Cl)cc2c(-c2ccccc2)c1SC(=S)N1CCOCC1 | inconclusive [inhibitor, single point] | –
COc1ccccc1NC(=O)Nc1nc(CC(=O)N2CCN(c3ccccc3OC)CC2)cs1 | inconclusive [inhibitor, single point] | –
NC(Cc1ccccc1)c1csc(Nc2nccc(C(F)(F)F)n2)n1 (stereo not drawn) | inconclusive [inhibitor, partial curve, poor fit] | –
Cn1c(/C(C#N)=C/c2ccccc2Br)nc2ccccc21 | inconclusive [inhibitor, single point] | –

SMILES | Potency | activity change, negative = inhibition
CCCOc1ccc(C(=O)NNC(=S)NC(=O)c2ccco2)cc1 | inconclusive [inhibitor, single point] | –
O=C(NCC(c1cccs1)N1CCOCC1)c1ccc(Br)o1 (stereo not drawn) | inconclusive [inhibitor, single point] | –
Cc1cc(S(=O)(=O)N2CCCCCC2)c(Cl)cc1Cl | inconclusive [inhibitor, full curve, poor fit] | –
Cc1ccc(-c2n[nH]c(=S)nc2-c2ccc(C)cc2)cc1 | inconclusive [inhibitor, partial curve, poor fit] | –
CCOC(=O)Oc1c(OC)cc(C(=O)O[C@@H]2C[C@@H]3CN4CCc5c([nH]c6cc(OC)ccc56)[C@H]4C[C@@H]3[C@H](C(=O)OC)[C@H]2OC)cc1OC | inconclusive [inhibitor, single point] | –
Cc1sc2c(c1C)c(=O)n(CCc1ccccc1)c(=O)n2Cc1ccc(C(C)(C)C)cc1 | – | inactive: -1.3%
CN(CC(=O)Nc1cccc(F)c1)C(=O)c1sc2ccccc2c1Cl | inconclusive [inhibitor, partial curve, poor fit] | –
CCOC(=O)c1c(NC(=O)Cn2nc(C(F)F)cc2C(F)F)sc(C)c1C | inconclusive [inhibitor, single point] | –
CCNC(=O)C1(C)CCCN(Cc2csc(-c3ccccc3)n2)C1 (stereo not drawn) | inconclusive [inhibitor, full curve] | –
Cc1ccc(NC(=O)C2CCCN(c3ncnc4c3nc3n4CCCCC3)C2)nc1 (stereo not drawn) | inconclusive [inhibitor, full curve, poor fit] | –
C#Cc1ccc([C@@H]2C=C(C(=O)OCC=C)O[C@H](OCc3ccc(CO)cc3)C2)cc1 | inconclusive [inhibitor, partial curve, poor fit] | –
O=C(Nc1ccc(-c2ccco2)cc1)C1CCCN(Cc2ccc(CO)o2)C1 (stereo not drawn) | inconclusive [inhibitor, full curve, poor fit] | –
O=C1CSC(c2cn(-c3ccccc3)nc2-c2ccccc2)N1Cc1ccco1 (stereo not drawn) | inconclusive [inhibitor, partial curve, poor fit] | –
O=C1c2ccccc2C2(c3ccc(F)cc3)NCCN12 (stereo not drawn) | inconclusive [inhibitor, partial curve, poor fit] | –
CCOC(=O)C(NC(=O)c1ccccc1)(OCc1ccccc1)C(F)(F)F (stereo not drawn) | inconclusive [inhibitor, partial curve, poor fit] | –
Nc1nc(CCl)nc(Nc2cccc3ccccc23)n1 | inconclusive [inhibitor, single point] | –
COc1ccc(CNC(=O)C2CCN(S(=O)(=O)N3CC(C)CC(C)C3)CC2)cc1 (stereo not drawn) | inconclusive [inhibitor, full curve, poor fit] | –
CC(OC(=O)c1ccc(O)cc1)C(=O)Nc1cc(C(F)(F)F)ccc1Cl (stereo not drawn) | inconclusive [inhibitor, single point] | –
CCC(C)(C)NC(=O)C(c1cccn1C)N(C(=O)Cn1nnc2ccccc21)c1ccccc1OC (stereo not drawn) | inconclusive [inhibitor, single point] | –
C[C@H](NC(=O)c1ncn2c1C(=O)NC[C@H]2C)C(=O)OC(C)(C)C | – | inactive: 12.8%
CC(Sc1ccc2c(c1)OCCO2)C(=O)Nc1ccc2c(c1)OCO2 (stereo not drawn) | – | inactive: -7.19%

SMILES | Potency | activity change, negative = inhibition
Cc1c(Cl)cccc1NC(=S)N(CCN(C)C)C(C)c1ccccn1 (stereo not drawn) | inconclusive [inhibitor, partial curve, poor fit] | –
Cc1ccc(N=CC=C2OC(C)(C)C(C)(C)O2)cc1 | inconclusive [inhibitor, full curve] | –
COc1cc(-c2cccc([C@H]3[C@@H]4C=CC[C@@H](C)[C@@H]4C(=O)N3Cc3ccccc3)c2)cc(OC)c1OC | inconclusive [inhibitor, single point] | –
O=C(Nc1ccc([N+](=O)[O-])cc1)c1cccc(S(=O)(=O)Nc2cccnc2)c1 | inconclusive [inhibitor, full curve, poor fit] | –
COc1c(C(=O)Nc2nccs2)ccc2ccccc12 | inconclusive [inhibitor, single point] | –
CCc1nn(CC(=O)NCCc2ccc(SC)cc2)c(=O)c2cc3sccc3n12 | – | inactive: -1.07%
COc1cccc(N2CC(NC(=O)C(=O)c3c[nH]c4ccccc34)CC2=O)c1 (stereo not drawn) | inconclusive [inhibitor, partial curve, poor fit] | –
CC12CCC(=O)N1C(C(=O)OCc1c(Cl)cccc1Cl)CS2 (stereo not drawn) | inconclusive [inhibitor, single point] | –
CC(C)(C)NC(=O)CSc1nnc(-c2ccccn2)n1Cc1ccccc1 | inconclusive [inhibitor, partial curve, poor fit] | –
CCC(C)c1ccccc1NC(=O)COC(=O)c1ccc2c(c1)S(=O)(=O)c1ccccc1C2=O (stereo not drawn) | – | inactive: 39.2%
O=C(NNc1c2ccccc2nc2ccccc12)c1ccccc1O | inconclusive [inhibitor, partial curve, poor fit] | –
CCCC(=O)NC(c1cccs1)c1cc(Cl)c2cccnc2c1O (stereo not drawn) | inconclusive [inhibitor, single point] | –
O=C(Cc1ccc(Br)cc1)OCC(=O)N1CCCCCC1 | – | inactive: 0.795%
Cc1ccc(C)c(N2CCN(C(=O)c3cc(C)nc4c3c(C)nn4-c3ccccc3)CC2)c1 | inconclusive [inhibitor, single point] | –
COc1ccccc1Cc1c(-c2cccc(Br)c2)nc2ccc(Cl)cn12 | inconclusive [inhibitor, partial curve, poor fit] | –
Cn1nnnc1SCC(=O)Nc1ccc(Br)cc1Br | – | inactive: 8.5%
COc1cccc(NC(=O)CN(C)C(=O)c2ccc(S(=O)(=O)Nc3ccccc3F)cc2)c1 | – | inactive: -15.9%
COc1ccc(S(=O)(=O)N2CCN(C(=O)CN3C(=O)NC(C)(c4ccc5ccccc5c4)C3=O)CC2)cc1 (stereo not drawn) | inconclusive [inhibitor, single point] | –
Cc1nc(NCCCN2CCOCC2)c2cnn(-c3ccccc3)c2n1 | inconclusive [inhibitor, single point] | –
CCOC(=O)C1(Cc2cccc(Cl)c2)CCCN(C(=O)C(C)(C)C)C1 (stereo not drawn) | inconclusive [inhibitor, single point] | –
CC1(Oc2ccccc2-c2ccno2)CCN(Cc2csc3ccccc23)C1 (stereo not drawn) | inconclusive [inhibitor, single point] | –
